{"source": "the supplement of paper PMC8728848", "binders": {"B1": {"name": "CVN (Nostoc ellipsosporum), P81180 (protein)", "chain": "LGKFSQTCYNSAIQGSVLTSTCERTNGGYNTSSIDLNSVIENVDGSLKWQPSNFIETCRNTQLAGSSELAAECKTRAQQFVSTKINLDDHIANIDGTLKYE"}}, "experiment_in_all_cases": "glycan array binding signal (z-score within array); higher = stronger binding", "settings_in_all_cases": "glycan notation: IUPAC condensed, linker removed", "key": {"[1]": {"biological_target": "Gal(b1-3)[Fuc(a1-4)]GlcNAc(b1-3)Gal(b1-4)GlcNAc", "summary_of_the_method": "(§1)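 The binding signal is a Z-score computed within each array. Data were drawn from 3228 arrays in the Consortium for Functional Glycomics database, restricted to those with a known protein sequence. Scores were averaged over arrays of the same protein sequence at different concentrations or buffers, and over linkers, and negative values can be taken as non-binding.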"}, "[2]": {"biological_target": "Gal(b1-3)[Fuc(a1-4)]GlcNAc(b1-3)Gal(b1-4)[Fuc(a1-3)]GlcNAc", "summary_of_the_method": "as §1"}, "[3]": {"biological_target": "Gal(b1-3)[GlcNAc(b1-6)]GalNAc", "summary_of_the_method": "as §1"}, "[4]": {"biological_target": "Gal(b1-3)[Neu5Ac(a2-6)]GalNAc", "summary_of_the_method": "as §1"}, "[5]": {"biological_target": "Gal(b1-3)[Neu5Ac(a2-6)]GlcNAc(b1-6)Gal(b1-4)Glc", "summary_of_the_method": "as §1"}, "[6]": {"biological_target": "Gal(b1-3)[Neu5Ac(b2-6)]GalNAc", "summary_of_the_method": "as §1"}, "[7]": {"biological_target": "Gal(b1-4)Gal", "summary_of_the_method": "as §1"}, "[8]": {"biological_target": "Gal(b1-4)GalNAc(a1-3)[Fuc(a1-2)]Gal(b1-4)GlcNAc", "summary_of_the_method": "as §1"}, "[9]": {"biological_target": "Gal(b1-4)GalNAc(b1-3)[Fuc(a1-2)]Gal(b1-4)GlcNAc", "summary_of_the_method": "as §1"}, "[10]": {"biological_target": "Gal(b1-4)Glc", "summary_of_the_method": "as §1"}, "[11]": {"biological_target": "Gal(b1-4)Glc6S", "summary_of_the_method": "as §1"}, "[12]": {"biological_target": "Gal(b1-4)GlcNAc", "summary_of_the_method": "as §1"}, "[13]": {"biological_target": "Gal(b1-4)GlcNAc(a1-6)Gal(b1-4)GlcNAc", "summary_of_the_method": "as §1"}, "[14]": {"biological_target": "Gal(b1-4)GlcNAc(b1-2)Man", "summary_of_the_method": "as §1"}, "[15]": {"biological_target": "Gal(b1-4)GlcNAc(b1-2)Man(a1-3)Man(b1-4)GlcNAc(b1-4)GlcNAc", "summary_of_the_method": "as §1"}, "[16]": {"biological_target": "Gal(b1-4)GlcNAc(b1-2)Man(a1-3)[Gal(b1-4)GlcNAc(b1-2)Man(a1-6)]Man(b1-4)GlcNAc(b1-4)GlcNAc", "summary_of_the_method": "as §1"}, "[17]": {"biological_target": "Gal(b1-4)GlcNAc(b1-2)Man(a1-3)[Gal(b1-4)GlcNAc(b1-2)Man(a1-6)]Man(b1-4)GlcNAc(b1-4)[Fuc(a1-6)]GlcNAc", "summary_of_the_method": "as §1"}, "[18]": {"biological_target": "Gal(b1-4)GlcNAc(b1-2)Man(a1-3)[Gal(b1-4)GlcNAc(b1-2)][GlcNAc(b1-4)]Man(b1-4)GlcNAc(b1-4)GlcNAc", "summary_of_the_method": "as §1"}, "[19]": {"biological_target": "Gal(b1-4)GlcNAc(b1-2)Man(a1-3)[GlcNAc(b1-2)Man(a1-6)]Man(b1-4)GlcNAc(b1-4)GlcNAc", "summary_of_the_method": "as §1"}, "[20]": {"biological_target": "Gal(b1-4)GlcNAc(b1-2)Man(a1-3)[Man(a1-6)]Man(b1-4)GlcNAc(b1-4)GlcNAc", "summary_of_the_method": "as §1"}, "[21]": {"biological_target": "Gal(b1-4)GlcNAc(b1-2)Man(a1-6)Man(b1-4)GlcNAc(b1-4)GlcNAc", "summary_of_the_method": "as §1"}, "[22]": {"biological_target": "Gal(b1-4)GlcNAc(b1-2)Man(a1-6)[GlcNAc(b1-2)Man(a1-3)]Man(b1-4)GlcNAc(b1-4)GlcNAc", "summary_of_the_method": "as §1"}, "[23]": {"biological_target": "Gal(b1-4)GlcNAc(b1-2)Man(a1-6)[Man(a1-3)]Man(b1-4)GlcNAc(b1-4)GlcNAc", "summary_of_the_method": "as §1"}, "[24]": {"biological_target": "Gal(b1-4)GlcNAc(b1-2)[Gal(b1-4)GlcNAc(b1-4)]Man(a1-3)[Gal(b1-4)GlcNAc(b1-2)Man(a1-6)]Man(b1-4)GlcNAc(b1-4)GlcNAc", "summary_of_the_method": "as §1"}, "[25]": {"biological_target": "Gal(b1-4)GlcNAc(b1-2)[Gal(b1-4)GlcNAc(b1-4)]Man(a1-3)[Gal(b1-4)GlcNAc(b1-2)[Gal(b1-4)GlcNAc(b1-6)]Man(a1-6)]Man(b1-4)GlcNAc(b1-4)GlcNAc", "summary_of_the_method": "as §1"}, "[26]": {"biological_target": "Gal(b1-4)GlcNAc(b1-2)[Gal(b1-4)GlcNAc(b1-4)]Man(a1-3)[GlcNAc(b1-4)][Gal(b1-4)GlcNAc(b1-2)Man(a1-6)]Man(b1-4)GlcNAc(b1-4)GlcNAc", "summary_of_the_method": "as §1"}, "[27]": {"biological_target": "Gal(b1-4)GlcNAc(b1-2)[Gal(b1-4)GlcNAc(b1-4)]Man(a1-3)[GlcNAc(b1-4)][Gal(b1-4)GlcNAc(b1-2)[Gal(b1-4)GlcNAc(b1-6)]Man(a1-6)]Man(b1-4)GlcNAc(b1-4)GlcNAc", "summary_of_the_method": "as §1"}, "[28]": {"biological_target": "Gal(b1-4)GlcNAc(b1-2)[Gal(b1-4)GlcNAc(b1-6)]Man(a1-6)[Gal(b1-4)GlcNAc(b1-2)Man(a1-3)]Man(b1-4)GlcNAc(b1-4)GlcNAc", "summary_of_the_method": "as §1"}, "[29]": {"biological_target": "Gal(b1-4)GlcNAc(b1-2)[Gal(b1-4)GlcNAc(b1-6)]Man(a1-6)[GlcNAc(b1-4)][Gal(b1-4)GlcNAc(b1-2)Man(a1-3)]Man(b1-4)GlcNAc(b1-4)GlcNAc", "summary_of_the_method": "as §1"}, "[30]": {"biological_target": "Gal(b1-4)GlcNAc(b1-3)Gal(b1-3)GlcNAc", "summary_of_the_method": "as §1"}, "[31]": {"biological_target": "Gal(b1-4)GlcNAc(b1-3)Gal(b1-4)Glc", "summary_of_the_method": "as §1"}, "[32]": {"biological_target": "Gal(b1-4)GlcNAc(b1-3)Gal(b1-4)GlcNAc", "summary_of_the_method": "as §1"}, "[33]": {"biological_target": "Gal(b1-4)GlcNAc(b1-3)Gal(b1-4)GlcNAc(b1-3)Gal(b1-4)GlcNAc", "summary_of_the_method": "as §1"}, "[34]": {"biological_target": "Gal(b1-4)GlcNAc(b1-3)Gal(b1-4)[Fuc(a1-3)GlcNAc(b1-6)]Gal(b1-4)Glc", "summary_of_the_method": "as §1"}, "[35]": {"biological_target": "Gal(b1-4)GlcNAc(b1-3)Gal(b1-4)[Fuc(a1-3)]GlcNAc(b1-3)Gal(b1-4)[Fuc(a1-3)]GlcNAc", "summary_of_the_method": "as §1"}, "[36]": {"biological_target": "Gal(b1-4)GlcNAc(b1-3)GalNAc", "summary_of_the_method": "as §1"}, "[37]": {"biological_target": "Gal(b1-4)GlcNAc(b1-3)[Gal(b1-4)GlcNAc(b1-6)]Gal(b1-4)GlcNAc", "summary_of_the_method": "as §1"}, "[38]": {"biological_target": "Gal(b1-4)GlcNAc(b1-3)[Gal(b1-4)GlcNAc(b1-6)]GalNAc", "summary_of_the_method": "as §1"}, "[39]": {"biological_target": "Gal(b1-4)GlcNAc(b1-3)[GlcNAc(b1-6)]Gal(b1-4)GlcNAc", "summary_of_the_method": "as §1"}, "[40]": {"biological_target": "Gal(b1-4)GlcNAc(b1-6)Gal(b1-4)GlcNAc", "summary_of_the_method": "as §1"}, "[41]": {"biological_target": "Gal(b1-4)GlcNAc(b1-6)GalNAc", "summary_of_the_method": "as §1"}, "[42]": {"biological_target": "Gal(b1-4)GlcNAc(b1-6)[Gal(b1-3)]GalNAc", "summary_of_the_method": "as §1"}, "[43]": {"biological_target": "Gal(b1-6)Gal", "summary_of_the_method": "as §1"}, "[44]": {"biological_target": "Gal3S(b1-3)GalNAc", "summary_of_the_method": "as §1"}, "[45]": {"biological_target": "Gal3S(b1-3)GlcNAc", "summary_of_the_method": "as §1"}}, "note": "This is one part of the list.", "data": [{"binder": "B1", "values": [{"measurement": "glycan array binding signal (z-score)", "setting": "[1]", "value": -0.304}, {"measurement": "glycan array binding signal (z-score)", "setting": "[2]", "value": -0.301}, {"measurement": "glycan array binding signal (z-score)", "setting": "[3]", "value": -0.3}, {"measurement": "glycan array binding signal (z-score)", "setting": "[4]", "value": -0.267}, {"measurement": "glycan array binding signal (z-score)", "setting": "[5]", "value": -0.299}, {"measurement": "glycan array binding signal (z-score)", "setting": "[6]", "value": -0.304}, {"measurement": "glycan array binding signal (z-score)", "setting": "[7]", "value": -0.276}, {"measurement": "glycan array binding signal (z-score)", "setting": "[8]", "value": -0.308}, {"measurement": "glycan array binding signal (z-score)", "setting": "[9]", "value": -0.302}, {"measurement": "glycan array binding signal (z-score)", "setting": "[10]", "value": -0.302}, {"measurement": "glycan array binding signal (z-score)", "setting": "[11]", "value": -0.221}, {"measurement": "glycan array binding signal (z-score)", "setting": "[12]", "value": -0.307}, {"measurement": "glycan array binding signal (z-score)", "setting": "[13]", "value": -0.306}, {"measurement": "glycan array binding signal (z-score)", "setting": "[14]", "value": -0.221}, {"measurement": "glycan array binding signal (z-score)", "setting": "[15]", "value": -0.299}, {"measurement": "glycan array binding signal (z-score)", "setting": "[16]", "value": -0.306}, {"measurement": "glycan array binding signal (z-score)", "setting": "[17]", "value": 0.624}, {"measurement": "glycan array binding signal (z-score)", "setting": "[18]", "value": -0.3}, {"measurement": "glycan array binding signal (z-score)", "setting": "[19]", "value": -0.303}, {"measurement": "glycan array binding signal (z-score)", "setting": "[20]", "value": -0.191}, {"measurement": "glycan array binding signal (z-score)", "setting": "[21]", "value": -0.297}, {"measurement": "glycan array binding signal (z-score)", "setting": "[22]", "value": -0.304}, {"measurement": "glycan array binding signal (z-score)", "setting": "[23]", "value": -0.303}, {"measurement": "glycan array binding signal (z-score)", "setting": "[24]", "value": 1.2}, {"measurement": "glycan array binding signal (z-score)", "setting": "[25]", "value": 5.21}, {"measurement": "glycan array binding signal (z-score)", "setting": "[26]", "value": -0.296}, {"measurement": "glycan array binding signal (z-score)", "setting": "[27]", "value": -0.303}, {"measurement": "glycan array binding signal (z-score)", "setting": "[28]", "value": 0.182}, {"measurement": "glycan array binding signal (z-score)", "setting": "[29]", "value": -0.117}, {"measurement": "glycan array binding signal (z-score)", "setting": "[30]", "value": -0.307}, {"measurement": "glycan array binding signal (z-score)", "setting": "[31]", "value": -0.284}, {"measurement": "glycan array binding signal (z-score)", "setting": "[32]", "value": -0.303}, {"measurement": "glycan array binding signal (z-score)", "setting": "[33]", "value": -0.301}, {"measurement": "glycan array binding signal (z-score)", "setting": "[34]", "value": -0.297}, {"measurement": "glycan array binding signal (z-score)", "setting": "[35]", "value": 0.233}, {"measurement": "glycan array binding signal (z-score)", "setting": "[36]", "value": -0.304}, {"measurement": "glycan array binding signal (z-score)", "setting": "[37]", "value": -0.303}, {"measurement": "glycan array binding signal (z-score)", "setting": "[38]", "value": -0.095}, {"measurement": "glycan array binding signal (z-score)", "setting": "[39]", "value": -0.306}, {"measurement": "glycan array binding signal (z-score)", "setting": "[40]", "value": -0.306}, {"measurement": "glycan array binding signal (z-score)", "setting": "[41]", "value": -0.241}, {"measurement": "glycan array binding signal (z-score)", "setting": "[42]", "value": -0.302}, {"measurement": "glycan array binding signal (z-score)", "setting": "[43]", "value": -0.298}, {"measurement": "glycan array binding signal (z-score)", "setting": "[44]", "value": -0.306}, {"measurement": "glycan array binding signal (z-score)", "setting": "[45]", "value": -0.291}]}]}
